B1: OR4K15 (parent)
chain: GUUAACGGUCAUAGGCCAUGGAAACUAGGAGCACCAUUUCGCUGCCAGUGAAGAAAUGAACAAAGAAAAUCUGGGCCAGGCAGGCAUCAAAAGAAAUAGUCUUGCGCUCAACCAGAAAGUCUGUAAUCAUUUUAAGGGUA

Results on 21 variants are retold here after the RNAGym collection of RNA variant scans (doi:10.7554/elife.90254).

The source gives no read counts; variants with many changes may rest on few reads.

In the data set the parent is B1. In words: self-cleavage, relative activity (ratio to wild type); higher = more cleavage; in vitro, sequencing; the parent is a self-cleaving ribozyme.
As to GUUAACGGUCAUAGGCCAUGGAAGCUAGGAGCACCAUUUCGCUGCCAGUGAAGAAAUGAACAAAGAGAAUCUGGGCCAGGCAGGCAUCAAAAGAAAUAGUCUUGCGCACAACCAGAAAGUCUGUAAUCAUUUUAAGGGUA [A24G A67G U108A], the self-cleavage was determined as 0.05. With GUUAACGGUCAUAGGCCAUGGAAGCUAGGAGCACCAUUUCGCUGCCAGUGAAGAAAUGAACAAAGAAAGUCUGGGCCAGGCAGGCAUCAAAAGAAAUGGUCUUGCGCUCAACCAGAAAGUCUGUAAUCAUUUUAAGGGUA [A24G A69G A98G], the self-cleavage came to 0.5. On to GUUAACGGUCAUAGGCCAUGGAAGCUAGGAGCACCAUUUCGCUGCCAGUGAAGGAAUGAACAAAGAAAAUCUGGGCCAGGCAGGCAUCAAAGGAAAUAGUCUUGCGCUCAACCAGAAAGUCUGUAAUCAUUUUAAGAGUA [A24G A54G A92G G137A], for which the self-cleavage came out at 2.08. Consider GUUAACGGUCAUAGGCCAUGGAAGCUAGGAGCACCAUUUCGCUGCCAGUGAAGGAAUGGACAAAGAAAAUCUGGGCCAGGCAGGCGUCAAAAGAAAUAGUCUUGCGCUCAACCAGAAAGUCUGUAAUCAUUUUAAGGGUA [A24G A54G A59G A86G], for which the self-cleavage was 1.15. In the case of GUUAACGGUCAUAGGCCAUGGAAGCUAGGAGCACCAUUUCGCUGCCAGUGAAGAAAUGAACAGAGAAAAUCUGGGCCGGGCAGGCACCAAAAGAAAUAGUCUUGCGCUCAACUAGAAAGUCUGUAAUCAUUUUAAGGGUA [A24G A63G A78G U87C C113U], the self-cleavage was determined as 0.06.

Consider GUUAACGGUCAUAGGCCAUGGAAGCUAGGAGCACCAUUUCGCUGCCAGUGAAGAAAUGAACGAAGAAAAUCUGGGCCAGGCAGGCGUCAAAGGAAAUAGCCUUGCGCUCAACCAGAAAGUCUGUAAUCAUUUUAAGGGUA [A24G A62G A86G A92G U100C], for which the self-cleavage is 0.67. As to GUUAACGGUCAUAGGCCAUGGAAGCUAGGAGCACCAUUUCGCUGCCAGUGAAGAAAUGAACAAGGAAAAUCUGGGCCAGGCAGGCAUCAAAAGAAAUAGUCUUGCGCUCAACCAGAAAGCCUGUAAUCAUUUUAAGGGUA [A24G A64G U120C], the self-cleavage was 0.71. In the case of GUUAACGGUCAUAGGCCAUGGAAGCUAGGAGCACCAUUUCGCUGCCAGUGAAGAAAUGACCAAAGAAAAUCUGGGCCGGGCAGGCAUCAAAAGAAAUAGUCUUGCACUCAACCAGAAAGUCUGUAAUCAUUUUAAGGGUA [A24G A60C A78G G106A], the self-cleavage is 0.02. With GUUAACGGUCAUAGGCCAUGGAAGCUAGGAGCACCAUUUCGCUGCCAGUGAAGAAAUGGACAAAGAAAAUCUGGGCCAGGCAGGCAUCAAAAGAAAUAGUCUUGCGCUCAACCAGAAAGUCCGUAAUCAUUUUAAGGGUA [A24G A59G U122C], the self-cleavage came out at 0.38.

Take GUUAACGGUCAUAGGCCAUGGAAGCUAGGAGCACCAUUUCGCUGCCAGUGAAGAAAUGAACAGAGAAAAUCUGGGCUAGGCAGGCAUCAAAAGAAAUAGUCUUGCGCUCAACCAGAAAGUCUGUAAUCAUUUUAAGGGUA [A24G A63G C77U]: the self-cleavage amounted to 1.46.

Regarding GUUAACGGUCAUAGGCCAUGGAAGCUAGGAGCACCAUUUCGCUGCCAGUGAAGAAAUGAACAAAGAGAAUCUGGGCCAGGCAGGCAUCAAAAGAAGUAGUCUUGCCCUCAGCCAGAAAGUCUGUAAUCAUUUUAAGGGUA [A24G A67G A96G G106C A111G], the self-cleavage came out at 0.

On to GUUAACGGUCAUAGGCCAUGGAAGCUAGGAGCACCAUUUCGCUGCCAGUGAAGAAAUGAACGAAGGAAAUCUGGGCCAGGCAGGCAUCAAAAGAAAUAGUCUUGCGCUCAACCAGAAAGUCUGUAAUCAUUUUAAGGGUA [A24G A62G A66G], for which the self-cleavage worked out at 1.06. With GUUAACGGUCAUAGGCCAUGGAAGCUAGGAGCACCAUUUCGCUGCCAGUGAAGGAAUGAACAAAGAAAGUCCGGGCCAGGCAGGCAUCAAAAGAAAUAGUCUUGCGCUCAACCAGAAAGUCUGUAAUCAUUUUAAGGGUA [A24G A54G A69G U72C] the figure was 0.16. The same measure for GUUAACGGUCAUAGGCCAUGGAAGCUAGGAGCACCAUUUCGCUGCCAGUGAAGAAAUGAACAAAGAUAAUCUGGGCCUGGCAGGCAUCAAAAGAAAUAGUCUUGCGCUCAACCAGAAAGUCUGUAAUCAUUUUAAGGGUA [A24G A67U A78U]: 0.83; for GUUAACGGUCAUAGGCCAUGGAAGCUAGGAGCACCAUUUCGCUGCCAGUGAAGAAAUGAGCAAAGAAAAUCUGGGCCAGGCAGGCAUCAAAAGAAAUAGUCUUGCGCUCAACCAGGAAGUCUGUAAUCAUUUUAAGGGUA [A24G A60G A116G]: 1.16. Turning to GUUAACGGUCAUAGGCCAUGGAAGCUAGGAGCACCAUUUCGCUGCCAGUGAAGAAAUGAACAAUGAAAAUCUGUGCCAGGCAGGCAUCAAAAGAAAUAGUCUUGCGCUCAACCAGAAAGUCUGUAAUCGUUCUAAGGGUA [A24G A64U G74U A129G U132C], the self-cleavage came to 0.13. In the case of GUUAACGGUCAUAGGCCAUGGAAGCUAGGAGCACCAUUUCGCUGCCAGUGAAGAAGUGAACAAAGGAAAUCUGGGCCAGGCAGGCAUCAAAAGAAAUAGUCUUGCGCUCAUCCAGAAAGUCUGUAAUCAUUUUAAGGGUA [A24G A56G A66G A111U], the self-cleavage was determined as 0.11. The same measure for GUUAACGGUCAUAGGCCAUGGAAGCUAGGAGCACCAUUUCGCUGCCAGUGAAGAAAUGAACAAAGAAUAUCUGGGCCAGGCAGGCGUCAAAAGAAAUAGUCUAGCGCUCAACCAGAGAGUCUGUAAUCAUUUUAAGGGUA [A24G A68U A86G U103A A117G]: 0.62. With GUUAACGGUCAUAGGCCAUGGAAGCUAGGAGCACCAUUUCGCUGCCAGUGAAGGAAUGAACAAUGAAAAUCUGGGCCAGGCAGGCAUCAAAAGGAAUAGUCUUGCGCUCAACCAGAAAGUCUGUAAUCAUUUUAAGGGUA [A24G A54G A64U A94G] the figure was 1.49; with GUUAACGGUCAUAGGCCAUGGAAGCUAGGAGCACCAUUUCGCUGCCAGUGAAGAAAUGAACAAAGAAGAUCUGGGCCGGGCAGGCAUCAAAAGGAAUAGUCUUGCGCUCAACCAGAAAGUCUGUAAUCAUUUUAAGGGUA [A24G A68G A78G A94G], 0.3; with GUUAACGGUCAUAGGCCAUGGAAGCUAGGAGCACCAUUUCGCUGCCAGUGAAGAAAUGAACAAAGGAAAUCUGGGCCAGGCAGGCAUCAAAAGAAGUAGUCUUGCGCUCCACCAGAAAGUCUGUAAUCAUUUUAAGGGUA [A24G A66G A96G A110C], 0.78.
